# Results taken from paper PMC4336329 (PLoS ONE, 2015).
# Screen size: about 310,000 compounds; about 14,000 (4.5%) showed an effect of 50% or more. The effect is printed as a negative number. The list shows a part of the results.
# Target: human ether-à-go-go-related gene (hERG) potassium channel (human, UniProt Q12809)
# Assay: primary screen, population patch clamp on CHO cells stably expressing hERG
# 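Also: peak tail current of the secondary pulse compared with the same well before compound.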
# human ether-à-go-go-related gene (hERG) potassium channel, sequence (Q12809 whole entry, looked up): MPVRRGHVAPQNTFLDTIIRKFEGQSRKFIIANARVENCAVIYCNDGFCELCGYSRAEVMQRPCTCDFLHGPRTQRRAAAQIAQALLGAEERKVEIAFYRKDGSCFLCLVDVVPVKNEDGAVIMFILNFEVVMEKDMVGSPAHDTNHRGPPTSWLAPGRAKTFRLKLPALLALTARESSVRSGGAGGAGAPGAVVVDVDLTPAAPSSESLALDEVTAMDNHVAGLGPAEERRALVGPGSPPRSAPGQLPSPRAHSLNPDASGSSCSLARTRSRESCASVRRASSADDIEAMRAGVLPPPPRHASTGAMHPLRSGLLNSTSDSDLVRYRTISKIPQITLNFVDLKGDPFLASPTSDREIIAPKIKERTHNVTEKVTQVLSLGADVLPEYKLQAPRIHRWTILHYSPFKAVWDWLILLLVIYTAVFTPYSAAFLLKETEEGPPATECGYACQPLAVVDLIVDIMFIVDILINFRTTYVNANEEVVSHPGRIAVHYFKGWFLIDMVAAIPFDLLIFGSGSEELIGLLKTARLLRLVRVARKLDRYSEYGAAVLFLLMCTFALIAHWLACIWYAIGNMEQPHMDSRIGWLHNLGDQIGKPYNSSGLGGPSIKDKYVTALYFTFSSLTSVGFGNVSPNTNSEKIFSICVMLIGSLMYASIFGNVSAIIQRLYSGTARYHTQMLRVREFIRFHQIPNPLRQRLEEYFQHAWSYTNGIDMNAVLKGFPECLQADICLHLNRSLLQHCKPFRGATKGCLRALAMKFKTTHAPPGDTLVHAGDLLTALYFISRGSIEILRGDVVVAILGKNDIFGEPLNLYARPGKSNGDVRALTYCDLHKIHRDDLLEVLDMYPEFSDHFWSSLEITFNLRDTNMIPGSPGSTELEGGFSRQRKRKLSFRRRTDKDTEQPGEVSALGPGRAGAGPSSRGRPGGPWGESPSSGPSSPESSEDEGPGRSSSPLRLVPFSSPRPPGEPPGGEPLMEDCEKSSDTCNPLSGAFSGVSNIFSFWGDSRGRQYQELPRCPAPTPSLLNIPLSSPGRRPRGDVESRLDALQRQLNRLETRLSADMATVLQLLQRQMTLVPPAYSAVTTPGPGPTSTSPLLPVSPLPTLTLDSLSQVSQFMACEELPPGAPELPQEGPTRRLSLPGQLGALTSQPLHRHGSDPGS
row,Structure (SMILES),"hERG current change (%, negative = inhibition) at 10uM"
1,CCOc1cc(C)ccc1OCc1nnc(SCC(=O)Nc2cccc(C(=O)O)c2)n1-c1ccccc1,19.9%
2,CN1c2ccccc2N(C)C1c1c(O)ccc2ccccc12,-0.366%
3,CCOC(=O)Cc1csc(NC(=O)c2ccc3c(c2)OCO3)n1,-22.8%
4,COc1ccc(OC)c(N=c2oc3cc(O)ccc3cc2C(N)=O)c1,3.97%
5,CCc1noc(C)c1C(=O)OCC(=O)Nc1nc(-c2ccc(F)c(F)c2)cs1,-1.03%
6,COc1ccc(OC)c(CNC(=O)C2CCN(C(=O)N(C)C)CC2)c1,7.09%
7,CC(C)(C)c1nnc(NC(=O)CN2C(=O)C3C4C=CC(C4)C3C2=O)s1 (centres unmarked),4.72%
8,CCN1CCN(CC(=O)NC2CCCCC2)C(=O)C1=O,1.65%
9,CCCCSc1nnc(-c2ccc(OC)cc2)n1C,-20%
10,CCOc1cc(CNCc2ccc(C(=O)O)cc2)ccc1OC.Cl,5.34%
11,O=C(Cc1cccc2ccccc12)N/N=C/c1ccc(Sc2nc3ccccc3s2)o1,14.4%
12,COc1ccc(C(O)Cc2nc3ccccc3n2C)cc1OC (centres unmarked),20.7%
13,CN(C)S(=O)(=O)c1ccc(Cl)c(NC(=O)CN2C(=O)NC(C)(C3CC3)C2=O)c1 (centres unmarked),-9.33%
14,Cl.FC(F)(F)c1cc(CO[C@@H]2CCCN[C@@H]2c2ccccc2)cc(C(F)(F)F)c1,-27.4%
15,CC(C)(C)OC(=O)N1CCC[C@H]1C(=O)OCC(=O)Nc1cc(S(C)(=O)=O)ccc1Cl,-16.1%
16,CCOC(=O)C1=C(C)N(CCCC(=O)O)C(=O)NC1c1ccccc1OS(=O)(=O)c1ccc([N+](=O)[O-])cc1 (centres unmarked),17.8%
17,Cc1ccc(NC(=O)NC2CCN(CC(=O)Nc3nccs3)CC2)cc1,-6.52%
18,Cc1ccc(Cl)c(OCC(=O)Nc2ccc(S(=O)(=O)NC3=NCCCCC3)cc2)c1,37.4%
19,O=C(CCCCCCN1C(=O)c2ccccc2C1=O)Nc1nccs1,12.2%
20,CCCN(CC1CC1)C(=S)NC(=O)c1ccccc1Br,-4.58%
21,COC(=O)c1nn(-c2ccccc2)c(Cl)c1/C=N/OC(=O)c1ccc(Cl)c(Cl)c1,4.58%
22,O=C(CSc1nncc2ccccc12)Nc1ccc(C(=O)O)cc1,10.6%

row,Structure (SMILES),"hERG current change (%, negative = inhibition) at 10uM"
1,Cc1ccc(-c2csc3ncnc(N4CCN(S(=O)(=O)c5cccs5)CC4)c23)cc1,14%
2,O=C(Nc1cc(Cl)ccc1N1CCCCC1)c1cccs1,6.9%
3,CCOC(=O)N1CCC(N(C(=O)Nc2cccc(OC)c2)C(C)CC)CC1 (centres unmarked),-1.67%
4,Cc1nc2ccc(-c3nc4ccc(N)cc4[nH]3)cc2[nH]1,20.4%
5,COCCn1nnnc1C(c1cc2cc(C)ccc2[nH]c1=O)N1CCCCCC1 (centres unmarked),-0.827%
6,CS(=O)(=O)NN1C(=O)c2ccccc2NC1c1cccs1 (centres unmarked),0.73%
7,O=C(CC(c1ccccc1)c1ccccc1O)NCCc1ccccc1 (centres unmarked),12.7%
8,CN(C)S(=O)(=O)c1ccc(NC(=O)COc2ncnc3sccc23)cc1,15.7%
9,Cc1ccc(C(=O)OCC(=O)N(CC(C)C)c2c(N)n(Cc3ccccc3)c(=O)[nH]c2=O)o1,-4.51%
10,CC1=C(C(N)=O)C(c2ccccc2)n2nc(-c3cccc(C)c3)nc2N1 (centres unmarked),-46.1%
11,C=CCOc1ccc(C=Nc2ccc(Cl)cc2)c(O)c1,8.47%
12,CC1CC(C)CN(C(=O)COc2ccc(-c3nnco3)cc2)C1 (centres unmarked),1.83%
13,O=C(CCNC(=O)c1ccc(Br)cc1)NCCCSc1ccccc1,-22.4%
14,COc1ccc(/C(C)=N\n2cnnc2)cc1,6.86%
15,CCS(=O)(=O)c1ccc2c(c1)N(S(C)(=O)=O)CC(C(=O)NCc1ccccc1OC)O2 (centres unmarked),-3.09%
16,C=CCn1c(SCc2nc3ccccc3[nH]2)nnc1-c1ccccn1,-18.7%
17,CCCn1nc(C(=O)NC2CCCCCC2)c2ccccc2c1=O,-19%
18,Nc1cc(S(=O)(=O)C(F)(F)F)ccc1C(=O)O,17.6%
19,COC(=O)CCC(=O)c1ccc(OC)c(Cl)c1,12.2%
20,O=C(NCc1ccncc1)C(=O)Nc1nc2ccccc2s1,9.09%
21,Cc1ccc(N2C(=O)/C(=C/c3ccco3)SC2=S)cc1,16.8%
22,Cc1ccc(C)c(OCCC(=O)OCC(=O)N2CCN(S(=O)(=O)c3ccc(Cl)cc3)CC2)c1,-29.8%
